# Laboratory results as given in article PMC12136788.
# The other results are listed elsewhere or left out.
# B1: chr1:109011400:109011505:-|CDS|ENSG00000085433|unk|total|mutant (ssRNA)
# RNA: GGGAGUUCUACAGUCCGACGAUCGUCAUGGUUGCAGAAUUCAUCCCUGCUGACCGGAAGCUAAGUGAAGCUGGUUUUAAGGCCCGUAACAAUCGUUUAUUUCAGCUUGUAAUGAAAGGCCUGCUUUAUGAAUGCUGUGCCGAACAACAGAGGAUUGAGCAUCA
# B2: ENSG00000198589:be:win_2751|CDS|ENSG00000198589|bound_else_gene|NA|bound_elsewhere_windowed (ssRNA)
# RNA: GGGAGUUCUACAGUCCGACGAUCAAUCACUCAUUCAAAGGUCACUUUUGAAAUACACAAAGAAAACCUUGCCAAUAUAUUUAGGGAACAGCAAGGAAAAGUUGAUGAAGAAAUAGGGCUGUGUUCUUCAACUUCAGUUCAAGCCAACAGAGGAUUGAGCAUCA
# B3: ENSG00000198589:be:win_9151|3pUTR|ENSG00000198589|bound_else_gene|NA|bound_elsewhere_windowed (ssRNA)
# RNA: GGGAGUUCUACAGUCCGACGAUCAUUGUGUGGUUAGCACAAGGAAUCUAAUUUAUAGCAAGUGUGAAAUAGUUACCAUUUUUUCCUGAUCUGUCAUCUUCAUAGCACAACAAAACGAAAUGAUGGAAAUGCUCUUGAGCUCACCAACAGAGGAUUGAGCAUCA
# B4: chr2:216675367:216675485:-|3pUTR|ENSG00000115461|msi1|FALSE|unique (ssRNA)
# RNA: GGGAGUUCUACAGUCCGACGAUCGCCAGGCAGAGGCCAGCCCUCCGUGGUGCACACAGCACGCGCCUCAGUCCAUCCCAUUUUAGUCUUUAAACCCUCAGGAAGUCACAGUCUCCGGACACCACACCACAUGAGCCCAACAGGCAACAGAGGAUUGAGCAUCA
# B5: chr2:96252317:96252350:-|3pUTR|ENSG00000135956|msi1_unk|FALSE|overlapping (ssRNA)
# RNA: GGGAGUUCUACAGUCCGACGAUCGUGUCCCCUGCUGAGCUGAAAAGGAAAUGGAUUCCAAUCUCUUCCAACCUUUAAGGUGAUAGAUAGUUUGAGCAAGACUGGAGAAUGGACAACACUAUGAAGCUGUGGCUAGAAAGGGACCAACAGAGGAUUGAGCAUCA
# B6: chr1:6224442:6224573:-|3pUTR|ENSG00000116237|msi1_unk|total|mutant (ssRNA)
# RNA: GGGAGUUCUACAGUCCGACGAUCCUAUACAAUUUUAAAAAUACUUCCUCACCGGAUGCUUUGGCCCUUCAUCUAUUUAAUCACCGCUACAUACCUAUUUUUUAUAAGCCGCAGUACACAUUCAAAGGGGUAUUCCCCGCUCAACAACAGAGGAUUGAGCAUCA
# Target: MSI1 full-length (mouse, UniProt Q61474 1-362)
# Assay: nsRBNS (natural sequence RNA bind-n-seq); RBNS binding buffer (assumed for nsRBNS): 25 mM Tris pH 7.5, 150 mM KCl, 3 mM MgCl2, 0.01% Triton X-100, 500 ug/ml BSA, 20 U/ml SUPERase-In, 4 C; UNK is unkempt and MSI1 is Musashi-1; names of the RNAs are library labels; protein concentration not given here; high values mean tight binding
# Sequence of UniProt Q61474 (Q61474 whole entry): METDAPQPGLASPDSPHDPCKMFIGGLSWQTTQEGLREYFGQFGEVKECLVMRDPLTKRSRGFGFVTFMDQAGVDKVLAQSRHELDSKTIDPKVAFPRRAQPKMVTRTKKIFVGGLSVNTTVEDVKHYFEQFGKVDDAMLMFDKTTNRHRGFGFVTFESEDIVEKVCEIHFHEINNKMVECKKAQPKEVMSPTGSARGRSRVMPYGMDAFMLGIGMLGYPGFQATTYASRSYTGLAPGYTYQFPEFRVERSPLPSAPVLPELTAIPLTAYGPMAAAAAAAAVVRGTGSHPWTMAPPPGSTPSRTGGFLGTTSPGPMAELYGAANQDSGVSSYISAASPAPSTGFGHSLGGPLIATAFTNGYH
row,Binder,binding signal
1,B1,0.641 enrichment R
2,B2,1.26 enrichment R
3,B3,33.5 enrichment R
4,B4,1.36 enrichment R
5,B5,1.95 enrichment R
6,B6,18.3 enrichment R
